From patent US12551573B2, “Compositions and methods for the targeting of PCSK9” (Scribe Therapeutics Inc., priority 2022, dated 2026)

System: HBEGF locus
Assay type: cell-based, human
Details: high-throughput screen of dXR repression of the HBEGF gene
[1] = abundance of each domain in the library before vs after diphtheria toxin selection, listed domains met p-value <0.01 and log2(fold change) >2
[2] = change in abundance of each domain in the library before and after diphtheria toxin selection

| Molecule | Log2 (fold change) [1] | Log2 (fold change) [2] |
| --- | --- | --- |
| DOMAIN_22383 (protein, listed as Pteropus vampyrus) TQESVTFRDVAVHFSRDEWLYLDPAQRALYREVMLENYSSLVSLGILFSKPKVIFQLQQGEDPWMVENGVSCGACLGWESL | 3.4752 | – |
| DOMAIN_22407 (protein, listed as Aotus trivirgatus) EPGAVTFGDVAVYFSREEWGCLRPAQRALYRDVTRETYSHLGALGVGGSKPALISWMEEEAELWGPAAQDPEVAKCPTEAD | 2.5308 | – |
| DOMAIN_22425 (protein, listed as Aotus trivirgatus) SQEPVTFADVAVVFTPEEWVFLDSTQRSLYRDVMLENYRNLASVAGDQLCKPNALSYLEQRGEQWTTERGVISDTCPEPQL | 3.0333 | – |
| DOMAIN_22430 (protein, listed as Callorhinus ursinus) FQGSVTFRDVAIDFSQEEWEWLQPAQRDLYRHVMLENYGHLVSLAGFNISKPYVVSLLEQGREPWLVKGDVRRDPFSESNG | 2.982 | – |
| DOMAIN_22462 (protein, listed as Monodelphis domestica) SQKALTFQDVAVEFTQEEWGLLEPAQKNMHRDVMLENYENFVSLGLPVPKSALIFHLERRETPWLPSGEVLRNTYPDYLVQ | 3.5597 | – |
| DOMAIN_22471 (protein, listed as Papio anubis) SQESVAFEDVAVYFTTKEWAIMVPAERALYRDVMLENYEAVAFVVPPTSKPALVSHLEQGKESCFIRPQVVLSRSDWRAGL | 3.6293 | – |
| DOMAIN_22479 (protein, listed as Aotus trivirgatus) RPRALKFVDVAVYFSSEEWGCLRPAQRALYRDVMRETYGHLGALGFPGPKPALISWMEQESEAWSSAAQDPEKGENLGGAR | 3.9668 | – |
| DOMAIN_22512 (protein, listed as Aotus trivirgatus) SKGSLMFRDVSIDFSQEEWECLDSGQMNLYKEVMLENFSNLVSVGLSSSKPAVISLLEQGREPWMVDRELTRGLCSDLESM | 2.93 | – |
| DOMAIN_22518 (protein, Lipotes vexillifer) KEAFMAFGDVAVDFTQEEWRLLSPAQRTLHREVMLETYNHLVSLEIPFSKPKLISQLERGEEPWIKERQRPLSLCPAGSKL | 2.8869 | – |
| DOMAIN_22520 (protein, listed as Callorhinus ursinus) SQEPVTFEDVAVYFTQNQWASLDPMQRALYLEVMLENYANITSLAALPFPKPDLILQLEQGEAPWGLDPWTPLDGEALGGV | 3.3586 | – |
| DOMAIN_22566 (protein, listed as Papio anubis) VQEPVTFKDVAVDFTQEEWGQLDLVQRTLYRDVMLETYGHLLSVGNQIAKPEVISLLEQGEEPWSVEQACPQRACPEWMRN | 3.5278 | – |
| DOMAIN_22615 (protein, listed as Homo sapiens) PQKSVTFEDVAVYFTQAEWDGLSPAQRTLYRDVMLENYGNVASLGFPLLKPAVISQLEGGSELGGSSPLAAGTGLQGLQTV | 3.0957 | – |
| DOMAIN_22667 (protein, listed as Saimiri boliviensis) KPGALSFADVAVYFSPEEWGCLRPAQRALYRDVMRETYGHLGALGFPGPKPALISWMEQESEAWSSAAQDPEKGESLGGAR | 3.4947 | – |
| DOMAIN_22669 (protein, listed as Balaenoptera acutorostrata) TQVSVTFDDVAVTFTREEWRQLDPAQRTLYQEVMLENCRLLVSLGCPVPRPELIFQLEQGQKLWTVKEDLSRSTCPGKRYR | 3.583 | – |
| DOMAIN_22692 (protein, listed as Propithecus coquereli) GSVMFSDVSVDFSQDEWECLDPVQRDLYREVMLENYSNLVSVGLYIPKPQVISLLEQGKEPWMVGKELTRGLCSDLESMCE | 3.2791 | – |
| DOMAIN_22710 (protein, listed as Propithecus coquereli) ESVTFEDVAVYFSENEWIGLGPAQRALYRDVMLENYGAVASLAFPFPKPALISQLERGEAPWCSAPQGALDGESPRGISSE | 3.4387 | – |
| DOMAIN_22740 (protein, listed as Panthera pardus) SYGSLSFEDVTVGFSQEEWQHLDPAQRTLYRDVMLENYSHLVAVGCCVPKPDVIFRLEQGQQPWIVEEESLDQSCPEVCKV | 2.692 | – |
| DOMAIN_22742 (protein, listed as Panthera pardus) FQASVVFEDVAVNFTPEEWALLNRGQRKLYRDVMLETCRNLSAVEKQKFHSSGDLTRMQEGLLRSPLVESVCERIEGDPCG | 2.9133 | – |
| DOMAIN_22768 (protein, listed as Ursus maritimus) SQEPVTFEDVAVYFTQNQWASLDPTQRALYREVMLENYANITSLAAFPFPKPDLILQLERGEARWGLDPWIAIEGEALGGV | 4.0609 | – |

| Molecule | Log2 (fold change) [1] | Log2 (fold change) [2] |
| --- | --- | --- |
| DOMAIN_22771 (protein, listed as Ursus americanus) RPRAVKFADVAVYFSPEEWGCLRPAQRALYRDVMRETYGHLGALGFPGPKPALISWMEQESEAWSPDAQDPEEGESLGGAL | 3.3498 | – |
| DOMAIN_621 (protein, listed as Pan paniscus) MAQCLVTFADVAIDFSQEEWACLNSAQRDLYWDVMLENYSNLVSLDLESAYENKSLPTEKNIHEIRASKRNSDRRSKSLGR | – | 2.1025 |
| DOMAIN_22776 (protein, listed as Propithecus coquereli) MTFEDVTVEFTPWEWGQLDPAQKDLYREVMLENFRNLASLGLPVSKPHVICQLEEGEEPCVLEREISVGAQSDLKRRPKAK | 2.7757 | – |
| DOMAIN_22782 (protein, listed as Vombatus ursinus) FQGSVTFQDVAVVFTPEEWGHLEPSQKELYREVMLENFRNLVCLGLVVYKPSVIYQLERGGAPWKPGGGGRRSGSSDWETL | 3.1663 | – |
| DOMAIN_22928 (protein, listed as Tupaia chinensis) VQGSVTFRDVAVLFSQDEWLHLDTAQRTLYREVMLENYSNLVSLGILFSKPKVISQLEQGQDPWKVEHGAPQGTCPGWESL | 3.0141 | – |
| DOMAIN_22937 (protein, Ursus arctos) PQVLVSFEDVAVFLSREEWGCLGPAQRGLYRDVMLETYRNLISLGFQDSKPDVISKLEEGEEPWAPYSPRIEEGWIQSHGS | 3.0779 | – |
| DOMAIN_22939 (protein, listed as Muntiacus reevesi) PQEPVTFADVAVLFTPEEWLFLDSAQKSLYRDVMLENYRNLASVGDQLCKTKMSSHMEQREELCVTERGVFPGAHLGPHLQ | 3.6187 | – |
| DOMAIN_22944 (protein, listed as Muntiacus reevesi) KPLAVRFADVAVYFSPEEWGCLLPAQRALYRDVMRETYGHLGALGFPGPKPALISWMEQESEAWSPDAQDPEEGESLGGAL | 3.3908 | – |
| DOMAIN_23007 (protein, listed as Lynx pardinus) AQAPLSFEDVAVSFSREEWRLLVPAQKDLYRDVMLENYRNLVSVGYQASEPDSLFQLEHGGPLWAVEGAAPRPPCPGFVLQ | 3.7329 | – |
| DOMAIN_623 (protein, listed as Pan paniscus) MSLGSELFRDVAIVFSQEEWQWLAPAQRDLYRDVMLETYSNLVSLGLAVSKPDVISFLEQGKEPWMVERVVSGGLCPGAKG | – | 3.3299 |
| DOMAIN_23009 (protein, listed as Saimiri boliviensis) PQESVAFDDVAVYFTKKEWAIMVPDQRALYRDVMLENYEAVAFVVPPTSKPALVSHLEQGKEPCFTQPQGVLSRSNWRAGF | 3.1269 | – |
| DOMAIN_23011 (protein, listed as Cervus elaphus) RTSAFPFQAPVTFGDLAIYFSQEEWEWLSPIQKDLYEDVMLENYQNLVSLGLCFRRPNVITLLEKGKAPWMVDPVKRRRGL | 3.6236 | – |
| DOMAIN_23012 (protein, listed as Cervus elaphus) SEGLVTFGDVAVDFSQEEWEWLNPAQRSLYRKVMLDNYRSLVSLGVSVSKPDVISLLEQGKEPWLVKEEGPRGARSDWEYA | 3.6131 | – |
| DOMAIN_23013 (protein, listed as Cervus elaphus) TSEPVSFADVAVYFSQEEWGCLQPAQRALYRDVMRETYGHLGALGFRGTKPALISWVEEEAELWGPDAGPPEMGECLTEAD | 3.4615 | – |
| DOMAIN_23039 (protein, listed as Saimiri boliviensis) IQRLLTFGDVAVAFTRIEWRHLDAAQRALYRDVMLENYGNLVSVGLLSSKPKLIAQLEQGAEPWMEARETPSGTRAVPDYW | 2.8829 | – |
| DOMAIN_23041 (protein, listed as Vombatus ursinus) FQESVMFEDVAVYFTQKEWADLAPAQRALYRDVMLENYGNMVSLAFPFPKPAVISKLERGEEPWGLDPQVVPNEEGLKGFP | 3.6194 | – |
| DOMAIN_23050 (protein, listed as Balaenoptera acutorostrata) MDSVTIEDVAVDFTLEEWALLDPSQRKLYRDVMQETLRNLAAVGAKREYHDIEDQYKNQGRKLRTFMVERFCKSKDISLCG | 2.9754 | – |
| DOMAIN_624 (protein, listed as Pan paniscus) MSLGSELFRDVAIVFSQEEWQWLAPAQRDLYRDVMLETYSNLVSLGLAVSKPDVISFLEQGKEPWMVERVVSGGLCPVLES | – | 2.8281 |
| DOMAIN_23082 (protein, listed as Mustela putorius) SKVPVTFGDLAIYFSQEEWEWLSPIQKDLYEDVMLENYQNLVSVGLSFRRPNVITLLEKGRAPWMVEPVRKRRGMDSGSKC | 3.9481 | – |

Where two headings read alike, the source gives them in different places.
